Assay results taken from PubChem BioAssay AID1159614 (National Center for Advancing Translational Sciences (NCATS), 2016).
In all, about 45,000 compounds went through this assay and about 65 (0.1%) were called active. Calls come from the whole dose curve; as a rule, active = well fitted activation curve with a large enough effect; inconclusive = small, poorly fitted or top-dose-only effect; inactive = no such curve, though single readings can be large or run the other way. Some of the results follow.

Biological target: Galactocerebrosidase (Homo sapiens) (UniProt P54803)
Chain of UniProt P54803 (P54803 whole entry, looked up): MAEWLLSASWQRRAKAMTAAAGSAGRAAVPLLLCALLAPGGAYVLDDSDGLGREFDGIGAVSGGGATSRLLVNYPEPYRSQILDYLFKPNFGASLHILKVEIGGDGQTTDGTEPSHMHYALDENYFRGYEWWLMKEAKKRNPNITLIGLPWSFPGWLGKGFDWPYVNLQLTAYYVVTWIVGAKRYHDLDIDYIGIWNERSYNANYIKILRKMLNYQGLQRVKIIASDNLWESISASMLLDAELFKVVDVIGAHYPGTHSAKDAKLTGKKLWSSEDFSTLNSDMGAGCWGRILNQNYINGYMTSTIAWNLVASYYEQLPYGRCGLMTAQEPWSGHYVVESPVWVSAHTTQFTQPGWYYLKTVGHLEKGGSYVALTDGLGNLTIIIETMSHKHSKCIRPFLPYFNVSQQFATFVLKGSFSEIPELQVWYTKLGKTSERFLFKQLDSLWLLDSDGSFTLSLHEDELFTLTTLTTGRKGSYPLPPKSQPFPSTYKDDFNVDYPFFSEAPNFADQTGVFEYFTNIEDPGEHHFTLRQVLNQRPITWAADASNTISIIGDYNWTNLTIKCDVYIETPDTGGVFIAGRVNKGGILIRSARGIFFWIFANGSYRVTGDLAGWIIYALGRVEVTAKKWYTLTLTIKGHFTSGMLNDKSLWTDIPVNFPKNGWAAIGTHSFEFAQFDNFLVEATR
Test: A Novel Cell-Based Assay to Identify Small Molecules for B -Galactocerebrosidase; note: 0% is about no effect; nearly all actives have a fitted effect of over 65% in size
Conditions: 145M-Twi-hGALC-G270D cells, HMU-beta-Gal fluorescence, 48 h; series mostly up to 57.5 µM; activation: at the top concentration
In short: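 qHTS, 1536-well; 145M-Twi-hGALC-G270D cells (WT line also made) in DMEM/F12 + 10% FBS; compound incubation on live cells; HMU-β-gal 0.1 mM final, pH 5.2, NaTC; carbonate stop; fluorescence increase = enhanced residual activity.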

activation, inactive:
Cc1nnc(N2CCN(c3ccccc3)CC2)c2c1nnn2Cc1ccc(F)cc1 -7.86%
Cc1ccc(C)c(NC(=O)CCn2cnnn2)c1 -3.4%
O=C1Nc2c(c(=O)[nH]c(=O)n2-c2ccc(Cl)cc2)C1(NS(=O)(=O)c1ccccc1)C(F)(F)F (stereo not given) -30.4%
CCOC(=O)c1c(C)[nH]c(C)c1S(=O)(=O)N1CCCC(C(=O)N2CCN(c3ccc(Cl)cc3)CC2)C1 (stereo not given) -15.5%
O=C(Nc1ccc(F)cc1F)c1ccc(-c2ccccc2)s1 -5.77%
CCCCOC(=O)c1ccc(NC(=O)c2ccc3c(c2)CCN3S(=O)(=O)c2ccccc2)cc1 -12.2%
COc1ccc(C2CC(=O)c3cc(-c4nc(-c5cccc([N+](=O)[O-])c5)cs4)c(=O)n(-c4cc(C)cc(C)c4)c3C2)cc1 (stereo not given) -2.98%
CCOC(=O)CSc1nc2sc3c(c2c(=O)n1CC)CCCC3 -22.9%
Cn1c(=O)c2c(-c3ccccc3Br)n(C(C)(C)C)cc2n(C)c1=O -14.5%
Cc1cnc2c(c1SCC(=O)N(C)c1ccccc1)c(=O)n(C)c(=O)n2C -12.1%
CCCC(=O)Nc1ccc2nn(-c3ccc(CC)cc3)nc2c1 -5.2%
O=C(CCCn1c(=O)c2sccc2n(Cc2c(F)cccc2Cl)c1=O)NCc1ccccc1 -2.93%
Cc1ccc2nc(CSc3nnc(NC(=O)COc4ccccc4F)s3)cc(=O)n2c1 -0.44%
Nc1c(C(=O)c2ccc3c(c2)OCO3)sc(Nc2ccccc2F)c1S(=O)(=O)c1ccccc1 -10.2%
COc1ccc(C)cc1N(CC(=O)N1CCC(C)CC1)S(=O)(=O)c1ccc(C)cc1 -19.9%
Cc1c(-c2nc(-c3ccc4c(c3)[nH]c(=O)n4C)no2)cccc1[N+](=O)[O-] -5.7%
CC1(C)CC(=O)c2cc(-c3nc(-c4ccc(Br)cc4)cs3)c(=O)n(-c3ccccc3)c2C1 14.9%
O=C(c1cnc(N2CCOCC2)c2ccccc12)N1CCN(c2ccc(F)cc2)CC1 0.241%
Cc1cccc(-c2noc(CN(C(C)C)S(=O)(=O)c3ccc(Br)cc3)n2)c1 1.56%
Cc1ccc(N2CCN(Cc3nnc(-c4ccc5c(c4)OCO5)o3)CC2)c(C)c1 -8.77%
Cc1cc(C)cc(NC(=O)CSCc2cc(=O)c3cc(Cl)ccc3[nH]2)c1 -3.25%
COc1ccccc1N1CCN(C(=O)c2ccc3c(c2)N(Cc2ccccc2)C(=O)c2ccccc2S3(=O)=O)CC1 -13.2%
Cc1cccc(NC(=O)Cn2nc(C)c3nn(-c4ccc(Cl)cc4)c(C)c3c2=O)c1C -8.44%
COCCNC(=O)CSc1nc2cc3c(cc2c(=O)n1CCCCCC(=O)NCCc1ccc(OC)c(OC)c1)OCO3 -10.8%
COc1ccc(-c2cc(C(F)(F)F)n3nc(-c4ccc(Cl)cc4)cc3n2)cc1OC -9.19%
COc1c(C)c2c(c(O)c1C/C=C(\C)CCC(=O)OCCN1CCOCC1)C(=O)OC2 -0.0188%
CN1C(C(=O)Nc2ccccn2)=C(O)c2ccccc2S1(=O)=O -10.7%
O=C1c2ccccc2-c2onc3c(Br)cc(NC4CCCCC4)c1c23 -16.6%
O=C(CSc1nnc(-c2cccs2)o1)Nc1cccc(C(F)(F)F)c1 16.7%
Cc1cccc(N2C(=O)CSC23C(=O)N(CC(=O)NCCc2ccccc2)c2ccccc23)c1 (stereo not given) -26.9%
O=C(OCc1ccccc1F)c1ccc(-c2nnn(Cc3ccccc3)n2)cc1 -3.48%
CCN(CC)c1ccc(NC(=O)C(NS(=O)(=O)c2cccs2)C(C)C)c(C)c1 (stereo not given) -8.93%
O=C(Cc1ccccc1)NC1CC(=O)N(c2ccc3c(c2)OCCO3)C1 (stereo not given) 5.72%
NCCS -15.9%
Cc1cc2c(cc1S(=O)(=O)CCC(=O)NCc1ccccc1)OCC(=O)N2 -20%
COCCOC(=O)C1=C(C)NC(C)=C(C(=O)OC(C)C)C1c1cccc([N+](=O)[O-])c1 (stereo not given) 17%
COc1ccc(-n2nnnc2C2CCN(S(=O)(=O)c3cccc(Cl)c3C)CC2)cc1 -12.8%
CCCOc1ccc2c(c1)CC[C@@H]1[C@@H]2CC[C@]2(C)C(OC)CC[C@@H]12 (stereo not given in full) -14%
CCn1nc(-c2ccccc2)c(-c2ccccc2)c(C(=O)Nc2ccccc2C(N)=O)c1=O -7.02%
CN(C(=O)c1cnc(N2CCOCC2)c2ccccc12)c1ccccc1F -0.296%
CCc1ccc(S(=O)(=O)Nc2cc(-c3cn4ccccc4n3)ccc2C)cc1 1.8%
COc1ccc(NC(=O)c2c(NCc3cccc(OC)c3)sc3c2CCC3)cc1 -10.9%
COc1ccc(C)c2sc(N(Cc3cccnc3)C(=O)COc3ccccc3)nc12 -19.5%
Cc1cccc(Nc2ncnc3c2cnn3C)c1C -0.657%
CCCOc1ccc(C(=O)Nc2ccc(NC(=O)c3cccc(Cl)c3)cc2)cc1 -21.5%
Cc1ccc(C)c(N2CCN(C(=O)c3cc(S(=O)(=O)N4CCCC4)c[nH]3)CC2)c1 11.4%
COc1cccc(Nc2cc(-c3ccccc3)nc(C)n2)c1 -9.76%
CN(C)c1ccc(-c2nc(-c3ccncc3)no2)cc1[N+](=O)[O-] -12.8%
COc1cc(OC)cc(C(=O)NCc2ccc3c(c2)CCN3C(=O)c2ccccc2)c1 -21.7%
Cc1ccc(-n2ncc3c(N4CCN(C)CC4)ncnc32)cc1 -5.38%
Cc1ccc2c(c1)N(C(=O)N1CCC(C(=O)NC3CCCCCC3)CC1)CCO2 -15.6%
COCCCNC(=O)CSc1nc2nc(C)c(Cc3ccccc3Cl)c(C)n2n1 0.141%
COc1cccc(CNC(=O)c2cc(-c3cccs3)nc3ccccc23)c1 -9%
CC(=O)N1CCCc2cc(S(=O)(=O)NCc3ccc(N(C)C)cc3)ccc21 -12.1%
COc1cc2nc(NCc3ccccc3Cl)n3nc(-c4cccnc4)nc3c2cc1OC 5.49%
COc1ccc(CC(=O)N2CC(=O)Nc3ccc(Br)cc3C2c2ccc(F)cc2)cc1OC (stereo not given) -8.36%
COC(=O)c1ccc(NC(=O)CC2C(=O)N(c3ccccc3)C(=O)N2C2CCCC2)cc1 (stereo not given) 3.43%
CCOc1ccc(Nc2c(S(=O)(=O)c3ccc(C)cc3)cnc3ccc(OC)cc23)cc1 -26.1%
COc1cc(C(=O)N2CCC(c3ccncc3)CC2)cc(OC)c1OC -13.7%
COc1ccc(Cn2c(C(=O)O)c(CNC3CCC(C)CC3)c3ccc(C)cc32)cc1 (stereo not given) 2.63%
Cc1cccc(-n2c(SCC(=O)Nc3ccccc3Cl)nc3n[nH]c(C)c3c2=N)c1 -10.5%
COc1cccc(C(=O)Nc2ccc3nc(SCc4ccc(C)cc4)sc3c2)c1 -1.55%
Cn1nc(-c2ccccc2)c(-c2ccccc2)c(C(=O)Nc2ccc(S(N)(=O)=O)cc2)c1=O 3.11%
CCOc1ccc(NC(=O)CN2C(=O)CCSc3ccc(S(=O)(=O)N4CCCC4)cc32)cc1 -13.8%
O=C(NCC(c1cccnc1)N1CCOCC1)C(=O)Nc1cccc(Cl)c1 (stereo not given) -15.3%
CSc1ccc(CCNC(=O)c2sc3ncccc3c2-n2cccc2)cc1 -12%
COC(=O)c1ccc(NC(=O)N2CCc3c([nH]c4ccccc34)C2c2ccc(C)cc2)cc1 (stereo not given) -34.9%
Cc1ccc(C)c(N2CCN(C(=O)C(C)n3nc(C)c4sc5ccccc5c4c3=O)CC2)c1 (stereo not given) 4.33%
COc1cccc(-n2cc(C(=O)NCCc3cccc(C)c3)c3ccccc3c2=O)c1 -32.2%
CCC1CCCCN1CCCNC(=O)c1cc2c(Cl)nc3ccc(C)cc3c2s1 (stereo not given) -14.3%
Cc1c2cnn(CC(=O)NCCc3ccccc3)c(=O)c2c(C)n1Cc1ccccc1Cl -5.07%
CCC1CCCCN1CCCNC(=O)c1ccc2c(c1)N(Cc1cccc(C)c1)C(=O)c1ccccc1S2(=O)=O (stereo not given) -5.55%
COc1ccc(Cn2c(=O)c3oc4ccccc4c3n(CC(=O)Nc3cc(C)cc(C)c3)c2=O)cc1 5.7%
O=C(NCc1ccccc1Cl)C(=O)NCC(c1ccco1)S(=O)(=O)c1cccs1 (stereo not given) -14%
COc1ccccc1CNC(=O)C1CCN(c2nn3c(=O)cc(C)nc3s2)CC1 6.31%
O=C(O)c1ccc(-n2nc(-c3ccccc3O)nc2-c2ccccc2O)cc1 -7.48%
Cc1ccc(-c2nc3ccc(Br)cn3c2Nc2ccc3c(c2)OCO3)o1 -19.6%
O=C(COc1ccccc1F)NC1CC(=O)N(c2ccc3c(c2)OCCO3)C1 (stereo not given) -16.1%
CCc1ccccc1NC(=O)CSc1nc2c(oc3ccccc32)c(=O)n1-c1ccccc1 -1.06%
CCOc1ccc(NC(=O)CSc2nc3nc(C)c(Cc4ccccc4)c(C)n3n2)cc1 -12.7%
COc1cc(C(=O)NCC(c2ccc(N(C)C)cc2)N2CCCC2)cc(OC)c1OC (stereo not given) -12%
COc1ccc(/C=C(\C#N)c2nc(-c3ccc(Cl)c(Cl)c3)cs2)cc1OC 15.9%
CCc1ccc(NC(=O)CSc2nc(=O)n(Cc3cccnc3)c3c2CCC3)cc1 -8.64%
CC(=O)c1ccc(NC(=O)CN2C(=O)c3cccnc3Sc3ccccc32)cc1 -9.73%
COc1ccccc1N1CCN(C(=O)c2cnn(-c3ccc(C)c(C)c3)c2C2CCN(C(=O)OC(C)(C)C)CC2)CC1 -6.86%
Cc1cccc(C(=O)Nc2ccc(-c3nc4cc(C(C)C)ccc4o3)cc2)c1 -12.1%
Cc1ccc(N2CCN(C(=O)NCc3noc4ccccc34)CC2C)cc1 (stereo not given) -11.4%
COc1cc(Cl)c(C)cc1Nc1nc2ccccc2nc1NS(=O)(=O)c1ccccc1 -13.3%
COc1ccc(-c2c3c(nc4sc(C(=O)Nc5ccc(F)cc5)c(N)c24)CC(C)(C)CC3=O)cc1 -9.69%
CCOC(=O)c1c(C)oc2ncnc(NCCCN3CCN(c4cc(C)ccc4C)CC3)c12 -6.15%
COc1ccc(Cl)cc1S(=O)(=O)N1CCN(Cc2cccc(F)c2)CC1 -7.71%
CCCOc1ccc(C(=O)N(Cc2cccs2)c2ccc(C)cc2)cc1 -7.27%
CCOC(=O)c1ccc(NC(=O)C2CCN(C(=O)N3CC(C)Oc4ccc(C)cc43)CC2)cc1 (stereo not given) -18.7%
COc1ccc(S(=O)(=O)n2nc(C)c(S(=O)(=O)N3CCCCCC3)c2C)cc1OC 9.55%
O=C(NCc1ccco1)C1CCN(C(=O)N2CCOc3ccc(Cl)cc32)CC1 -10.9%
